Compound in the assay: CCc1nc(-c2cccc(C)c2)c(-c2ccnc(NC(=O)c3ccccc3)c2)s1 [TAK-715]
Briefly: Viability of human cancer cell lines after 72 h of drug (GDSC screen). Particulars: top dose inferred. As for the experimental part:
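Human cancer cell lines in 384-well plates, medium with 10% serum, drug for 72 h over a 256-fold dose range (nine 2-fold or five 4-fold steps up to the top dose). Adherent lines were fixed and stained with the nucleic acid dye Syto60, suspension lines read with resazurin; signal relative to control wells, capped at 0 and 100%. One two-parameter sigmoid per drug and line, fitted in a mixed model over all curves with the slope shared within a line.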

One may read the IC50 as the concentration that inhibits the measured activity by half.

Lines with a small IC50 respond at low doses; where the fit passes the top or lowest dose, that dose stands as a limit. For AUC the same curve is integrated over the 256-fold range of doses and scaled to a fraction; the more sensitive the line, the further below 1. A top dose marked as inferred comes from the curve model; the source does not state it. A value given as a limit tells only on which side of the number the result lay.

Consider “HCT-116 (large intestine, adherent, top dose 20 µM)”, for which the AUC was found to be 0.907 and the IC50 is greater than 20 µM.

For “HD-MY-Z (Hodgkin lymphoma, adherent, top dose 20 µM)”, the AUC was 0.934 and the IC50 is greater than 20 µM.

With “HDLM-2 (Hodgkin lymphoma, suspension, top dose 20 µM)”, the AUC amounted to 0.92 and the IC50 is greater than 20 µM.

“HDQ-P1 (breast, adherent, top dose 20 µM)”: the AUC was determined as 0.981 and the concentration for half-maximal inhibition (IC50) is greater than 20 µM.

Regarding “HEC-1 (endometrium, adherent, top dose 20 µM)”, the AUC came out at 0.962 and the IC50 is greater than 20 µM.

On to “HEL (acute myeloid leukaemia, semi-adherent, top dose 20 µM)”, for which the AUC amounted to 0.896 and the IC50 is 17.3 µM.

Turning to “HGC-27 (stomach, adherent, top dose 20 µM)”, the AUC stood at 0.907 and the IC50 was greater than 20 µM.

As to “HH (T-cell leukaemia, suspension, top dose 20 µM)”, the AUC turned out to be 0.904 and the IC50 is greater than 20 µM.

“HL-60 (acute myeloid leukaemia, suspension, top dose 20 µM)”: the AUC was 0.964 and the IC50 is greater than 20 µM.

For the cell line HLE (liver, adherent, top dose 20 µM), the AUC is 0.989 and the IC50 was greater than 20 µM.

On to “HMV-II (melanoma, adherent, top dose 20 µM)”, for which the AUC was 0.96 and the IC50 is greater than 20 µM.

Consider “HN (head and neck, adherent, top dose 20 µM)”, for which the AUC came out at 0.848 and the IC50 came to 13.5 µM.

As to “HO-1-N-1 (head and neck, adherent, top dose 20 µM)”, the AUC amounted to 0.965 and the IC50 is greater than 20 µM.

Take “HO-1-u-1 (head and neck, adherent, top dose 20 µM)”: the AUC was 0.953 and the IC50 is greater than 20 µM.

As for “HOP-62 (lung adenocarcinoma, adherent, top dose 20 µM)”, the AUC turned out to be 0.884 and the IC50 is greater than 20 µM.

For the cell line “HOP-92 (large cell lung carcinoma, adherent, top dose 20 µM)”, the AUC came out at 0.975 and the IC50 was greater than 20 µM.

As to “HOS (osteosarcoma, adherent, top dose 20 µM)”, the AUC turned out to be 0.992 and the IC50 was greater than 20 µM.

As for “HPAC (pancreas, adherent, top dose 20 µM)”, the AUC worked out at 0.944 and the IC50 is greater than 20 µM.

Consider “HPAF-II (pancreas, adherent, top dose 20 µM)”, for which the AUC is 0.911 and the IC50 is greater than 20 µM.

Consider “HSC-2 (head and neck, adherent, top dose 20 µM)”, for which the AUC amounted to 0.976 and the IC50 is greater than 20 µM.

“HSC-3 (head and neck, adherent, top dose 20 µM)”: the AUC amounted to 0.897 and the IC50 worked out at 18.6 µM.

On to “HSC-4 (head and neck, adherent, top dose 20 µM)”, for which the AUC amounted to 0.969 and the IC50 was greater than 20 µM.

With “HSC-39 (stomach, suspension, top dose 20 µM)”, the AUC was found to be 0.927 and the IC50 is greater than 20 µM.

Turning to “HT55 (large intestine, adherent, top dose 20 µM)”, the AUC stood at 0.979 and the IC50 is greater than 20 µM.

“HT (B-cell lymphoma, suspension, top dose 20 µM)”: the AUC is 0.964 and the IC50 is greater than 20 µM.

For HT-3 (cervix, adherent, top dose 20 µM), the AUC amounted to 0.978 and the IC50 is greater than 20 µM.

“HT-29 (large intestine, adherent, top dose 20 µM)”: the AUC amounted to 0.958 and the IC50 is greater than 20 µM.

Regarding “HT-115 (large intestine, adherent, top dose 20 µM)”, the AUC was 0.859 and the half-maximal inhibitory concentration (IC50) is 14.3 µM.

Consider “HT-144 (melanoma, adherent, top dose 20 µM)”, for which the AUC was 0.982 and the IC50 is greater than 20 µM.

For “HT-1080 (fibrosarcoma, adherent, top dose 20 µM)”, the AUC came out at 0.985 and the IC50 is greater than 20 µM.

For “HT-1197 (bladder, adherent, top dose 20 µM)”, the AUC amounted to 0.976 and the IC50 was greater than 20 µM.

Turning to “HT-1376 (bladder, adherent, top dose 20 µM)”, the AUC amounted to 0.928 and the IC50 is greater than 20 µM.

Consider “HTC-C3 (thyroid, adherent, top dose 20 µM)”, for which the AUC was found to be 0.952 and the IC50 was greater than 20 µM.

For “HUTU-80 (digestive system, adherent, top dose 20 µM)”, the AUC came to 0.886 and the IC50 is 15.6 µM.

In the case of HeLa (cervix, adherent, top dose 20 µM), the AUC is 0.933 and the IC50 is greater than 20 µM.

On to “Hep 3B2_1-7 (liver, adherent, top dose 20 µM)”, for which the AUC turned out to be 0.973 and the IC50 is greater than 20 µM.

In the case of Hey (ovary, adherent, top dose 20 µM), the AUC is 0.942 and the IC50 is greater than 20 µM.

Turning to “Hs633T (fibrosarcoma, adherent, top dose 20 µM)”, the AUC came to 0.978 and the IC50 is greater than 20 µM.

As for “Hs683 (glioma, adherent, top dose 20 µM)”, the AUC is 0.947 and the IC50 was greater than 20 µM.

As to “Hs746T (stomach, adherent, top dose 20 µM)”, the AUC came out at 0.792 and the IC50 came to 12.8 µM.

On to “Hs766T (pancreas, adherent, top dose 20 µM)”, for which the AUC amounted to 0.983 and the IC50 was greater than 20 µM.

Take “Hs939-T (melanoma, adherent, top dose 20 µM)”: the AUC stood at 0.985 and the IC50 was greater than 20 µM.

Consider “Hs940-T (melanoma, adherent, top dose 20 µM)”, for which the AUC worked out at 0.984 and the IC50 is greater than 20 µM.

In the case of “Hs-445 (Hodgkin lymphoma, suspension, top dose 20 µM)”, the AUC was determined as 0.879 and the IC50 turned out to be 17.8 µM.

“Hs-578-T (breast, adherent, top dose 20 µM)”: the AUC turned out to be 0.986 and the IC50 was greater than 20 µM.

As for “HuCCT1 (biliary tract, adherent, top dose 20 µM)”, the AUC is 0.957 and the IC50 is greater than 20 µM.

On to HuH-7 (liver, adherent, top dose 20 µM), for which the AUC was 0.972 and the IC50 is greater than 20 µM.

On to “HuO9 (osteosarcoma, adherent, top dose 20 µM)”, for which the AUC came to 0.906 and the IC50 was greater than 20 µM.

For the cell line “HuO-3N1 (osteosarcoma, adherent, top dose 20 µM)”, the AUC was found to be 0.982 and the 50% inhibitory concentration (IC50) is greater than 20 µM.

As to “HuP-T3 (pancreas, adherent, top dose 20 µM)”, the AUC was 0.95 and the IC50 is greater than 20 µM.

For the cell line “HuP-T4 (pancreas, adherent, top dose 20 µM)”, the AUC was determined as 0.91 and the IC50 is greater than 20 µM.

Consider “IA-LM (large cell lung carcinoma, adherent, top dose 20 µM)”, for which the AUC was found to be 0.966 and the IC50 is greater than 20 µM.

On to “IGR-1 (melanoma, adherent, top dose 20 µM)”, for which the AUC turned out to be 0.936 and the IC50 was greater than 20 µM.

Regarding “IGR-37 (melanoma, adherent, top dose 20 µM)”, the AUC worked out at 0.989 and the IC50 was greater than 20 µM.

On to “IHH-4 (thyroid, semi-adherent, top dose 20 µM)”, for which the AUC was 0.925 and the half-maximal inhibitory concentration (IC50) was greater than 20 µM.

“IM-95 (stomach, adherent, top dose 20 µM)”: the AUC was determined as 0.886 and the IC50 was greater than 20 µM.

Turning to “IMR-5 (neuroblastoma, adherent, top dose 20 µM)”, the AUC stood at 0.871 and the IC50 amounted to 13.9 µM.

“IPC-298 (melanoma, adherent, top dose 20 µM)”: the AUC is 0.971 and the IC50 was greater than 20 µM.

“IST-MEL1 (melanoma, adherent, top dose 20 µM)”: the AUC was determined as 0.967 and the IC50 was greater than 20 µM.

As to “IST-MES1 (mesothelioma, adherent, top dose 20 µM)”, the AUC worked out at 0.978 and the IC50 is greater than 20 µM.

For “IST-SL1 (small cell lung carcinoma, semi-adherent, top dose 20 µM)”, the AUC is 0.948 and the IC50 was greater than 20 µM.

Consider “IST-SL2 (small cell lung carcinoma, suspension, top dose 20 µM)”, for which the AUC was 0.864 and the IC50 came to 17.2 µM.

As for J82 (bladder, adherent, top dose 20 µM), the AUC amounted to 0.974 and the IC50 was greater than 20 µM.

In the case of “JAR (urogenital system, adherent, top dose 20 µM)”, the AUC came to 0.887 and the IC50 was greater than 20 µM.

Take “JEG-3 (urogenital system, adherent, top dose 20 µM)”: the AUC is 0.974 and the IC50 is greater than 20 µM.

As for JHH-1 (liver, adherent, top dose 20 µM), the AUC came to 0.943 and the IC50 was greater than 20 µM.

Consider JHH-2 (liver, adherent, top dose 20 µM), for which the AUC worked out at 0.934 and the IC50 was greater than 20 µM.

Consider JHH-4 (liver, adherent, top dose 20 µM), for which the AUC stood at 0.895 and the IC50 was greater than 20 µM.

The values are drawn from the supplement of paper PMC4967469.
